Reference: paper PMC4336329 (PLoS ONE, 2015)
The campaign covered roughly 310,000 compounds. About 2,200 (0.71%) showed an effect of 50% or more. The effect is printed as a negative number. The list shows a part of the results.

Target: human ether-à-go-go-related gene (hERG) potassium channel (human, UniProt Q12809)
Test: primary screen, population patch clamp on CHO cells stably expressing hERG

human ether-à-go-go-related gene (hERG) potassium channel, sequence (Q12809 whole entry, looked up): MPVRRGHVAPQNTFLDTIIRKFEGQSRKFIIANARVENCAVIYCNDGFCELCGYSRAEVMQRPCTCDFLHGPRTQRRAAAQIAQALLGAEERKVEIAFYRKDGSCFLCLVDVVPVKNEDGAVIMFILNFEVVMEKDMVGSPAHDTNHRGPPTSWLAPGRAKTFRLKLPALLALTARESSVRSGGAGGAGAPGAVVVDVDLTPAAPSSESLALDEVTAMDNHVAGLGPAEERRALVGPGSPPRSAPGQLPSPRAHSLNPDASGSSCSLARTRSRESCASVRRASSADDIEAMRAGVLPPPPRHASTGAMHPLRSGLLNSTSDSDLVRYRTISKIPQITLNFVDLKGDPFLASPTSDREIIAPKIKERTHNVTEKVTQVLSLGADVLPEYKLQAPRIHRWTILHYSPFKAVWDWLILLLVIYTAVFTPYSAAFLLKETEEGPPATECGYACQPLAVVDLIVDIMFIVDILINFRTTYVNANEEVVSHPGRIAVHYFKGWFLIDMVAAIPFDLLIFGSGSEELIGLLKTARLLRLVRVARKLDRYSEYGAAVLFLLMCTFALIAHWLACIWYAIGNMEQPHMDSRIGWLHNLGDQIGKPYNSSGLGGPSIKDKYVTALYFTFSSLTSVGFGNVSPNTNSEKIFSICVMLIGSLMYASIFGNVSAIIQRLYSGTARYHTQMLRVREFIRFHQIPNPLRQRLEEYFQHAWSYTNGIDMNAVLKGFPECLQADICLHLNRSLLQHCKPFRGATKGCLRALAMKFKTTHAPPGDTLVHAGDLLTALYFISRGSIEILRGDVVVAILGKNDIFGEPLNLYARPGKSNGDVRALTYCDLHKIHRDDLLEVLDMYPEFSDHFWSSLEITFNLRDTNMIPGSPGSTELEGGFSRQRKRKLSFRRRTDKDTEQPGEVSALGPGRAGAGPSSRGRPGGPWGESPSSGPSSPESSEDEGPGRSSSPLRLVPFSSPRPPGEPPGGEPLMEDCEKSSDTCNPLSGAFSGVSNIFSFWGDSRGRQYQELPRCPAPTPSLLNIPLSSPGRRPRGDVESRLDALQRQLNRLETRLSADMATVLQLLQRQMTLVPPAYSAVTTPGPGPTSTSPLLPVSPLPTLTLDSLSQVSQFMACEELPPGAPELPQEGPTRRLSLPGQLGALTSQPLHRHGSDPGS

SMILES | hERG current change (%, negative = inhibition) at 1uM
CCCCc1nnc(NC(=O)C(C)Sc2nc(O)c(Cc3ccccc3)c(=O)[nH]2)s1 (stereo not shown) | 11.1%
COc1cc2cnncc2cc1OC | 7%
O=Cc1c(C(=O)O)n(Cc2ccccc2F)c2ccccc12 | 13%
CCCCCn1c(N2CCOCC2)nc2c1c(=O)n(CC(N)=O)c(=O)n2C | 0.163%
Cc1cc(C)cc(NS(=O)(=O)c2cnc(Cl)c(Cl)c2)c1 | 8.7%
O=S(=O)(Nc1ncccn1)c1ccc(NC(=S)N2CCN(Cc3ccc(F)cc3Cl)CC2)cc1 | 21.2%
CCC(=O)c1ccc(OC(=O)Cc2ccc(OC)cc2)cc1 | 17.1%
CCOC(=O)C1(Cc2ccccc2)CCN(Cc2cccn2-c2cccnc2)CC1 | 1.67%
COc1ccc(C2Nc3ccccc3C(=O)N2Cc2ccco2)cc1COc1ccccc1F (stereo not shown) | 5.97%
O=C(NC(=S)Nc1cccc2cc(O)ccc12)c1ccco1 | 10.9%
Cc1ccc(NC(=O)c2ccc([N+](=O)[O-])o2)cc1S(=O)(=O)N1CCOCC1 | -1.06%
COc1ccc(NC(=O)COC(=O)CO/N=C(\C)c2ccc3c(c2)OCO3)cc1S(N)(=O)=O | 4.37%
COc1cc(/C=N/NC(=O)CCC(=O)Nc2ccc(Br)cc2)ccc1O | 8.45%
O=C1CNC(=O)N1CC(O)Cn1c2ccccc2c2ccccc21 (stereo not shown) | 11.5%
COc1cc(CNc2ccc(O)cc2)cc(Br)c1OCc1ccccc1F | 10.1%
c1ccc(CCCc2nc(-c3ccccn3)no2)cc1 | 12.9%
C=CCNC(=O)C(=O)NCCCN1CCOCC1 | 8.34%
CCN(c1ccccc1)S(=O)(=O)c1ccc(OC)c(NC(=O)C2CC(=O)N(Cc3ccccc3)C2)c1 (stereo not shown) | -0.75%
Cc1c(CC(=O)NCCCO)c(=O)oc2cc3c(cc12)CCC(C)(C)O3 | 16.8%
Cc1ccccc1Nc1c([N+](=O)[O-])ccc2c1=NC1(CCCCC1)N=2 | -0.0666%

SMILES | hERG current change (%, negative = inhibition) at 1uM
O=C(Nc1ccccc1Cl)NC1(C(=O)N2CCCCC2)CCCCC1 | 21.5%
Cc1ccccc1N(Cc1nnc2n1CCCCC2)C(=O)Nc1ccccc1 | 18.9%
Cc1ccc(NC(=O)C2CC(=O)NC(Nc3cccc(C)c3)=N2)cc1 (stereo not shown) | 16.5%
COCCNC(=O)c1cc(-c2ccc(-c3ccccc3)cc2)nc2ccccc12 | 5.89%
COCCOC1CCN(C(=O)C2CCC(=O)N(CCc3ccccc3)C2)CC1 (stereo not shown) | 15.1%
CC(C)(C)c1ccc(NC(=O)CSc2n[nH]c(=O)n2-c2cccnc2)cc1 | 17.6%
CCOC(=O)c1sc2nc3c(SCC(=O)O)cc(C(=O)c4ccccc4O)cn3c(=O)c2c1C | 1.09%
CCC(C)Oc1ccc(/C=C/c2[nH]c(=O)[nH]c(=O)c2[N+](=O)[O-])cc1OC (stereo not shown) | -4.41%
O=[N+]([O-])c1ccc(-c2csc(NN=C3CCCC3)n2)cc1 | 16.3%
COC(=O)c1ccccc1NC(=S)NC(=O)c1ccccc1C | -9.42%
N=C1C(c2nc3ccccc3s2)=C(O)CN1C1CCCCC1 | -2.44%
Cc1nc(SCc2ccc(OCCC(C)C)cc2)n[nH]1 | 2.69%
Cc1ccc(-n2c(C)cc(/C=C(\C#N)C(=O)NCC3CCCO3)c2C)cc1 (stereo not shown) | -2.16%
CCOc1ccccc1NC(=O)C(OC(=O)c1ccc(NC(=O)CC#N)cc1)c1ccccc1 (stereo not shown) | 7.67%
COc1ccc(NC(=O)CSc2nnc(CNC(=O)c3ccco3)o2)c(OC)c1 | 8.02%
Br.CC(C)O.Cc1ccc(-c2csc(Nc3ccccc3)[n+]2CCc2ccccc2)cc1 | 14.6%
CC(=O)NC1(C(F)(F)F)NC(=O)N(C2CCCCC2)C1=O (stereo not shown) | -11.3%
COc1ccc2[nH]cc(CCNCc3cccnc3)c2c1.Cl | 14.6%
CN1N=C(C(=O)N2CCCC(C(=O)c3cccc(C(F)(F)F)c3)C2)CCC1=O (stereo not shown) | 13.3%
O=C(C1CC(c2ccc(F)cc2)=NO1)N1CCN(c2ccccc2)CC1 (stereo not shown) | 11.3%

SMILES | hERG current change (%, negative = inhibition) at 1uM
CC(=O)Nc1cccc(NC(=O)C(=O)c2cn(CC(=O)N3CCCCC3)c3ccccc23)c1 | -2.31%
O=C1Nc2ccccc2C(=O)N2C[C@@H](O)C[C@H]12 | 18.4%
CCN1CCN(c2cc(C)c3cc(NC(=O)c4cccnc4Cl)ccc3n2)CC1 | -4.44%
CNC(=O)CSc1nnnn1-c1cc(C)ccc1C | 4.74%
CCCn1c(N)c(C(=O)COC(=O)c2c(C)noc2C)c(=O)n(C)c1=O | 4.74%
Nc1cc(N)cc(-c2nc3ccccc3[nH]2)c1 | -1.26%
CCCCOC(=O)CCc1c(C)[nH]c(=O)c(C#N)c1C | -2.94%
COC(=O)c1ccc(CSc2nncn2C)cc1 | -4.1%
O=C1CC(N2CCN(c3ccccc3)CC2)C(=O)N1CCc1ccccc1 (stereo not shown) | -17.3%
COCCNCc1ccccc1 | 0.65%
CCOC(=O)c1sc(NC(=O)CC)nc1C | 6.16%
O=C(CN1CCCc2ccccc21)NCc1ccc2c(c1)OCO2 | 9.15%
Cc1cc(C)n2ncc(-c3cccc(Br)c3)c2n1 | 11.1%
CC(C)CCN1CCN(Cc2cccc(-n3cccn3)c2)CC1CCO (stereo not shown) | -26%
O=c1cnc2ccccc2n1Cc1ccc(Br)cc1 | 9.65%
CC(=O)N1CCN(c2ccccc2NC(=O)c2cc3ccccc3o2)CC1 | 5.48%
Cc1ccc(O)c(CNc2cnc3ccccc3c2)c1 | 8.36%
CCCc1nnc(NC(=O)C2CC(=O)N(CCc3ccc(F)cc3)C2)s1 (stereo not shown) | 6.69%
